{"source": "PubChem BioAssay AID2675", "about": "(National Center for Advancing Translational Sciences (NCATS), 2010)", "note": "Screen size: about 280,000 compounds; about 100 (0.036%) were called active. Inconclusive results, whose numbers are uncertain, are shown with a selection of clear calls. Calls come from the whole dose curve; as a rule, active = well fitted inhibition curve with a large enough effect in the signal ratio, with a control signal flat (not every such curve was filed as active); inconclusive = small, poorly fitted or top-dose-only effect, or effect the other way, or a change in a side signal; inactive = no such curve, though single readings can be large or run the other way; the % refers to the signal ratio. Potencies of inconclusive entries are doubtful fits and often do not repeat. “Side channel” marks fits to a control or component signal instead of the main read-out. Starred links: 1 amine or outer side, 2 acyl side, 3 side chain; linkers in the order of their positions; H or OH if unused. Positions of bridges follow the written chain, without caps; N, C: chain ends. Non-standard residues stand in square brackets, D forms with d. Residues, ends and D or L forms follow the SMILES beside them. ξ: configuration not given here. hSer(Ph(2-I,4-NO2,6-CO)) = O=C([C@H](CCOc1c(I)cc([N+](=O)[O-])cc1C(=O)[*:3])N[*:1])[*:2]; ξD = NC(CC(=O)O)C(=O)O"}
{"target": "Muscleblind-like protein 1 (Homo sapiens) (UniProt Q9NR56)", "sequence (Q9NR56 whole entry, looked up)": "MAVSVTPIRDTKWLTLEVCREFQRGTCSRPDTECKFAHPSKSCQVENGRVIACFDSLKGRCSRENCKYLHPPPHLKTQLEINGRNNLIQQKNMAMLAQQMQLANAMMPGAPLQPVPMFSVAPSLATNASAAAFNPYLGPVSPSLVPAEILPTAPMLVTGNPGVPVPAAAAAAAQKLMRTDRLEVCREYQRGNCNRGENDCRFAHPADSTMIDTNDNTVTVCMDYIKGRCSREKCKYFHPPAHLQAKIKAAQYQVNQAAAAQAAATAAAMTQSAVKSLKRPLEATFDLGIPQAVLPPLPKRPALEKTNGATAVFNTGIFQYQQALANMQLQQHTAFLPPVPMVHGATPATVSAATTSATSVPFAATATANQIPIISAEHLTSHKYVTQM", "experiment": "qHTS Assay for Inhibitors of MBNL1-poly(CUG) RNA binding; note: potency is the fitted concentration of half-maximal effect; tags give direction and shape of the fitted curve or compound fluorescence and quenching; for activity change, negative = inhibition: % is set by controls: 0 for no effect and ±100 for the full control effect", "conditions": "TR-FRET MBNL1-His/biotin-(CUG)12 binding, 665/545 ratio; activity change, negative = inhibition: at 57.5 µM (top of the series)", "in_short": "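Inhibition of protein-RNA binding appears as loss of TR-FRET between terbium anti-His antibody on MBNL1-His and streptavidin-XL665 on biotin-(CUG)12. Activity is normalized to buffer-only and uninhibited-complex controls.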"}
{"compound": "COC(=O)c1ccc(CSc2nnc(SCc3ccc(C(=O)OC)o3)s2)o1", "activity change, negative = inhibition": "inactive: -22.2%"}
{"compound": "CCOC(=O)CSc1ccc(S(=O)(=O)N2CCCCC2)cc1[N+](=O)[O-]", "Potency": "inconclusive: 1.12 µM [quencher, side channel, partial curve]"}
{"compound": "COc1cccc(NC(=O)/C=C/c2ccc([N+](=O)[O-])cc2)c1", "Potency": "inconclusive: 14.1 µM [quencher, side channel, partial curve]"}
{"compound": "Cc1ccc(N=C2C(=O)Nc3ccccc32)cc1", "Potency": "inconclusive: 17.8 µM [quencher, side channel, partial curve]"}
{"compound": "Cc1ccc(OC(C)C(=O)N=Nc2c(O)[nH]c3ccc([N+](=O)[O-])cc23)cc1", "note": "(stereo unspecified)", "Potency": "inconclusive: 17.8 µM [quencher, side channel, partial curve]"}
{"compound": "COc1ccc(-c2nn(C)c3sc(C(=O)NCc4ccco4)cc23)cc1OC", "activity change, negative = inhibition": "inactive: 9.63%"}
{"compound": "O=C(Nc1ccncc1)c1ccc([N+](=O)[O-])cc1Cl", "Potency": "inconclusive: 14.1 µM [quencher, side channel, partial curve]"}
{"compound": "CCCn1c(CN2CCN(C(=O)OCC)CC2)nc2cc([N+](=O)[O-])ccc21", "Potency": "inconclusive: 7.94 µM [quencher, side channel, full curve]"}
{"compound": "CC(C)CCN1CN(S(=O)(=O)c2cccs2)c2nc3ccccc3nc21", "activity change, negative = inhibition": "inactive: 15.6%"}
{"compound": "COC(=O)c1cc(C(=O)NC(C)(C)CC(C)(C)C)cc([N+](=O)[O-])c1", "Potency": "inconclusive: 12.6 µM [quencher, side channel, partial curve]"}
{"compound": "CC(C)c1ccccc1NC(=S)NN(Cc1ccccc1)c1ccccc1", "activity change, negative = inhibition": "inactive: 6.74%"}
{"compound": "O=[N+]([O-])c1ccc(N/N=C\\c2cccnc2)nc1", "Potency": "inconclusive: 3.55 µM [quencher, side channel, partial curve]"}
{"compound": "C[C@@H]1NC(=O)c2cc([N+](=O)[O-])cc(I)c2OCC[C@@H](C(=O)NC(CC(=O)O)C(N)=O)NC(=O)[C@H](CCC(=O)O)NC1=O", "note": "(stereo partly specified) (AE[hSer(Ph(2-I,4-NO2,6-CO))][ξD]-NH2; lactam N-3)", "Potency": "inconclusive: 6.31 µM [quencher, side channel, partial curve]"}
{"compound": "O=C(COc1cccnc1[N+](=O)[O-])NC1CCS(=O)(=O)C1", "note": "(stereo unspecified)", "Potency": "inconclusive: 14.1 µM [quencher, partial curve]"}
{"compound": "Cc1ccc(N(CC(=O)NCC2CCCO2)S(=O)(=O)c2ccccc2)c(C)c1", "note": "(stereo unspecified)", "activity change, negative = inhibition": "inactive: -3.36%"}
{"compound": "COc1ccccc1CNC(=O)/C=C/c1ccc(S(=O)(=O)NCc2ccco2)cc1", "Potency": "inconclusive: 22.4 µM [quencher, side channel, single point]"}
{"compound": "O=C(c1ccc(S(=O)(=O)c2ccc(F)cc2)c([N+](=O)[O-])c1)N1CCCCCC1", "Potency": "inconclusive: 11.2 µM [quencher, side channel, partial curve]"}
{"compound": "COc1ccc(-c2[nH]ncc2/C=N/NC(=O)c2cccc([N+](=O)[O-])c2)cc1OC", "Potency": "inconclusive: 11.2 µM [quencher, partial curve]"}
{"compound": "O=C(c1ccc(Cl)cc1)c1nnc(-c2ccncc2)o1", "Potency": "inconclusive: 2.51 µM [quencher, side channel, full curve]"}
{"compound": "C=CCNC(=O)c1sccc1Oc1ccc(F)cc1[N+](=O)[O-]", "Potency": "inconclusive: 25.1 µM [quencher, side channel, partial curve]"}
{"compound": "Cc1ccc(C(=O)Nc2cnc3ccccn3c2=O)cc1", "Potency": "inconclusive: 15.8 µM [quencher, partial curve]"}
{"compound": "CC(=O)N1CCN(CC(=O)Nc2ccc([N+](=O)[O-])cc2Br)CC1", "Potency": "inconclusive: 15.8 µM [quencher, side channel, partial curve]"}
{"compound": "CCCCn1nnnc1NCc1ccc(OC)c(OC)c1", "Potency": "inconclusive: 8.91 µM [quencher, side channel, single point]"}
{"compound": "O=C(Nc1ncc(S(=O)(=O)c2ccc([N+](=O)[O-])cc2)s1)c1cccnc1", "Potency": "inconclusive: 15.8 µM [quencher, side channel, partial curve]"}
{"compound": "CCCc1nnc(NC(=O)CCCN2C(=O)c3ccccc3C2=O)s1", "activity change, negative = inhibition": "inactive: -4.57%"}
{"compound": "O=[N+]([O-])c1ccc(O)c(-c2cc(C(F)(F)F)nc(-c3ccccc3)n2)c1", "Potency": "inconclusive: 6.31 µM [fluorescent, single point]"}
{"compound": "CCOC(=O)c1ccc(Nc2cc(C)nc(-c3ccccc3O)n2)cc1", "Potency": "inconclusive: 39.8 µM [fluorescent, side channel, single point]"}
{"compound": "COc1ccc(/C=C2\\SC(=Nc3ccccc3OC)NC2=O)cc1", "Potency": "inconclusive: 12.6 µM [quencher, side channel, partial curve]"}
{"compound": "O=C(O)c1c2c(nc3ccccc13)/C(=C/c1c(F)cccc1F)CCC2", "Potency": "inconclusive: 39.8 µM [quencher, side channel, single point]"}
{"compound": "Cc1nnc(SC(C)C(=O)N2CCc3ccccc32)s1", "note": "(stereo unspecified)", "activity change, negative = inhibition": "inactive: -0.742%"}
{"compound": "CSc1nnc(-c2ccccc2N=Cc2c(C)[nH]n(-c3ccccc3)c2=O)c(=O)[nH]1", "Potency": "inconclusive: 11.2 µM [quencher, side channel, partial curve]"}
{"compound": "C#CCOCCOCCOCCNc1nc(N2CCN(C(=O)C(Cc3cc4ccccc4[nH]3)n3cc(C(N)Cc4ccc(O)cc4)nn3)CC2)nc(N2CCN(C(=O)C(Cc3cc4ccccc4[nH]3)n3cc(C(N)Cc4ccc(O)cc4)nn3)CC2)n1", "note": "(stereo unspecified)", "Potency": "inconclusive: 63.1 µM [inhibitor, single point]"}
{"compound": "Cc1cc2cc(C(c3nnnn3Cc3ccccc3)N3CCc4ccccc43)c(=O)[nH]c2cc1C", "note": "(stereo unspecified)", "Potency": "inconclusive: 14.1 µM [quencher, partial curve]"}
{"compound": "COc1ccc(NCc2ccc([N+](=O)[O-])s2)cc1", "Potency": "inconclusive: 12.6 µM [quencher, side channel, partial curve, poor fit]"}
{"compound": "O=C(CCN1C(=O)/C(=C\\c2cccc(Br)c2)SC1=S)NCCCN1CCOCC1", "Potency": "inconclusive: 14.1 µM [quencher, side channel, partial curve]"}
{"compound": "CC(C)Cn1c(N)c(C(=O)NCCN2CCOCC2)c2nc3ccccc3nc21", "Potency": "inconclusive: 20 µM [quencher, side channel, single point]"}
